Assay results taken from the supplement of paper PMC9334596.
Where “and” joins values, the source holds several entries; their conditions need not be identical. Identical values can stand only once. ± gives the standard deviation of the averaged measurements. The full ranking holds about 5,300 compounds; the median of “PER2::LUC luminescence relative to vehicle control” is about 0.96, and the highest 2% start at about 1.3. Some of the results follow.

Tested on: mPer2Luc MEF
Assay: PER2::LUC luminescence relative to vehicle control (fold of vehicle); higher = higher PER2::LUC reporter signal
Settings: 10 µM
How it was run: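 The value is PER2::LUC luminescence expressed as fold of vehicle control. Mouse embryonic fibroblasts carrying the mPer2Luc reporter were seeded at ~3000 cells per well in 384-well plates and grown in DMEM with 10% FBS at 37 °C and 5% CO2. Compounds from commercial libraries were added at 10 μM 48 h after seeding, and luminescence was read with the ONE-Glo luciferase assay system 24 h and 30 h after treatment, followed by an alamarBlue viability assay.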

| Structure (SMILES) | PER2::LUC luminescence (time after treatment 24 h) | PER2::LUC luminescence (time after treatment 30 h) |
| --- | --- | --- |
| CCN(CC)c1ccc(/C=N/NC(=O)c2ccc(O)cc2)cc1 | 0.789 | 0.794 |
| O=C(NCc1nc2ccccc2c(=O)n1-c1ccc(F)cc1)Nc1ccc(Cl)c(C(F)(F)F)c1 | 1 | 0.929 |
| N=C(N)NCCCCNC(=N)N | 0.976 | 1.09 |
| C[C@@H](O)[C@H](NC(=O)c1ccc(C#Cc2ccc(CN3CCOCC3)cc2)cc1)C(=O)NO | 1.32 | 1.62 |
| Nc1ccn([C@H]2C[C@H](O)[C@@H](CO)O2)c(=O)n1 | 1.11 | 0.96 |
| O=C1[C@H]2CCCC[C@H]2C(=O)N1CCCCN1CCN(c2nsc3ccccc23)CC1 | 0.834 | 0.901 |
| C[C@]12C=CC(=O)N[C@@H]1CC[C@@H]1[C@@H]2CC[C@]2(C)[C@@H](C(=O)Nc3cc(C(F)(F)F)ccc3C(F)(F)F)CC[C@@H]12 | 0.628 | 0.84 |
| Clc1cccc(Cl)c1NC1=NCCN1 | 0.971 and 1.02 | 0.922 and 1.17 |
| CN(C)S(=O)(=O)c1ccc2c(c1)/C(=C/c1cc3c([nH]1)CCCC3)C(=O)N2 | 1.2 | 1.06 |
| CN1CCN(C2Cc3ccccc3Sc3ccc(Cl)cc32)CC1 (racemic) | 0.763 | 0.867 |
| CO[C@H]1/C=C/O[C@@]2(C)Oc3c(C)c(O)c4c(O)c(c5c(nc6cc(C)ccn65)c4c3C2=O)NC(=O)/C(C)=C\C=C\[C@H](C)[C@H](O)[C@@H](C)[C@@H](O)[C@@H](C)[C@H](OC(C)=O)[C@@H]1C | 1.08 | 1.05 |
| C=CCN(C)CCCCCCOc1ccc(C(=O)c2ccc(Br)cc2)c(F)c1 | 0.566 | 0.602 |
| Cn1ncnc1[C@H]1c2n[nH]c(=O)c3cc(F)cc(c23)N[C@@H]1c1ccc(F)cc1 | 1.03 | 0.792 |
| CC1(C)CC2C1CC[C@]1(C)CCC3C(C(=O)O)CC(=O)O[C@@]32C1 (stereo partly drawn) | 0.927 | 0.931 |
| Cc1cc(O)c(C(=O)N[C@@H](C(=O)N[C@@H]2C(=O)N3C(C(=O)O)=C(CSc4nnnn4C)CS[C@H]23)c2ccc(O)cc2)cn1 | 0.951 | 0.982 |
| COc1ccc(-c2nc(N3CCOCC3)c3sc(CN(C)c4ncc(C(=O)NO)cn4)cc3n2)cn1 | 0.37 | 0.325 |
| CC(=O)O[C@]1(C(C)=O)CC[C@H]2[C@@H]3C=C(Cl)C4=CC(=O)CC[C@]4(C)[C@H]3CC[C@@]21C | 0.646 | 1.06 |
| CN1CCN(CCc2ccc(Cl)c(Cl)c2)CC1 | 0.814 | 0.814 |
| COc1ccc(Cl)c(Nc2nc3ccccc3nc2NS(=O)(=O)c2cccc(NC(=O)C(C)(C)N)c2)c1 | 0.661 | 0.598 |
| CCN(CC)C(C)CN1c2ccccc2Sc2ccccc21 (stereo not drawn) | 1.04 | 0.978 |
| CCCNC(=O)NS(=O)(=O)c1ccc(Cl)cc1 | 0.946 | 0.842 |
| CN(C)C(=N)NC(=N)N | 0.558 | 0.95 |
| COc1c(C)cnc(Cn2cnc3c(Cl)nc(N)nc32)c1C | 0.088 | 0.064 |
| COc1ccc2c(Oc3ccc(NC(=O)c4c(C)n(CC(C)(C)O)n(-c5ccccc5)c4=O)nc3)ccnc2c1 | 0.972 | 0.785 |
| CC(=O)OC/C=C(\C)CC/C=C(\C)CC/C=C(\C)CC/C=C(\C)CC/C=C(\C)CC/C=C(\C)CC/C=C(\C)CC/C=C(\C)CCC=C(C)C | 1.01 | 1.01 |
| c1ccc2c(CCNc3ccc(Nc4ccncc4)cc3)c[nH]c2c1 | 0.663 and 0.608 | 0.599 and 0.503 |
| NCCCCCC(=O)O | 0.903 and 0.953 | 1.09 and 0.91 |

| Structure (SMILES) | PER2::LUC luminescence (time after treatment 24 h) | PER2::LUC luminescence (time after treatment 30 h) |
| --- | --- | --- |
| CC(C)CCNC(=O)[C@H](CC(C)C)NC(=O)[C@H]1O[C@@H]1C(=O)O | 0.877 | 0.938 |
| CC1=C(C)C(=O)C(C(CCCCCC(=O)O)c2ccccc2)=C(C)C1=O (stereo not drawn) | 1.06 | 0.847 |
| CNCCc1ccccn1 | 0.937 and 0.834 | 0.921 and 0.911 |
| Cc1nc2c([nH]1)-c1ccccc1N(C(=O)c1ccc(NC(=O)c3ccccc3-c3ccccc3)cc1)CC2 | 0.887 | 0.918 |
| CC=CC(=O)N(CC)c1ccccc1C | 1.29 | 1.27 |
| CC1CC2C3CCC4=CC(=O)C=CC4(C)C3(F)C(O)CC2(C)C1C(=O)CO (stereo not drawn) | 0.497 | 0.946 |
| CCCCCCCCCCCCCCCC(=O)OC[C@H](O)[C@H]1OC(=O)C(O)=C1O | 1 and 0.772 | 0.992 and 0.863 |
| Cc1csc(-c2nnc(Nc3ccc(Oc4ncccc4-c4ccnc(N)n4)cc3)c3ccccc23)c1 | 0.841 and 0.763 | 0.842 and 0.766 |
| Nc1nc2c(ncn2COC(CO)CO)c(=O)[nH]1 | 0.923 | 0.92 |
| O=C(c1ccc(F)cc1)C1CCN(CCn2c(=O)[nH]c3ccccc3c2=O)CC1 | 1.08 and 0.878 | 0.953 and 0.76 |
| O=C(CCc1ccccc1)N1CCC(O)(Cn2cnc3cc(Cl)ccc3c2=O)CC1 | 0.949 | 0.916 |
| C[C@H]1[C@H](C)CC[C@]2(C(=O)O)CC[C@]3(C)C(=CC[C@@H]4[C@@]5(C)CC[C@H](O)C(C)(C)[C@@H]5CC[C@]43C)[C@H]12 | 1.02 | 0.982 |
| Oc1cc2c(cc1O)C1c3ccc(O)c(O)c3OCC1(O)C2 (stereo not drawn) | 0.873 | 0.854 |
| NC1(C(=O)O)CC1 | 0.963 | 0.924 |
| COc1ccc(-c2cc(=O)c3c(O)c(OC)c(OC)c(OC)c3o2)cc1 | 1.03 | 1.16 |
| CCN(CC)C(=O)c1ccc(O)c(OC)c1 | 1.06 and 0.997 | 0.881 and 0.818 |
| CC(=O)[C@@]1(O)CC[C@H]2[C@@H]3CCC4=CC(=O)CC[C@]4(C)[C@H]3CC[C@@]21C | 0.497 | 0.559 |
| Nc1nc(O)c2[nH]nnc2n1 | 0.306 | 0.264 |
| Nc1nccc(Oc2ccc(NC(=O)c3c[nH]cc(-c4ccc(F)cc4)c3=O)cc2F)c1Cl | 0.834 ± 0.27 | 0.643 ± 0.26 |
| Cc1nc2c(-c3cnc(N)nc3)nc(N3CCOCC3)nc2n1C(C)C | 0.117 | 0.125 |
| CN(C)CCOC(c1ccccc1)c1ccccc1.Cn1c(=O)c2[nH]c(Cl)nc2n(C)c1=O | 0.905 | 0.804 |
| CN(CCCN1c2ccccc2CCc2ccccc21)CC(=O)c1ccc(Cl)cc1 | 0.756 | 0.935 |
| CCS(=O)(=O)N1CC(CC#N)(n2cc(-c3ncnc4[nH]ccc34)cn2)C1 | 1.09 and 0.875 | 1.24 and 1.03 |
| CCN(CC)c1ccc2cc(C(=O)O)c(=O)oc2c1 | 1.06 | 1.04 |
| CSC(=N)N | 1.05 | 0.748 |
| COc1cc(C)c(C(=O)Oc2cc(C)c(C(=O)O)c(O)c2C)c(OC)c1C | 0.801 | 0.798 |
| Cc1cc(C)c(S(=O)(=O)N(CCc2cccc(Br)c2)Cc2ccc(-c3cccc(S(C)(=O)=O)c3)cc2)c(C)c1 | 0.972 | 0.814 |
